From PubChem BioAssay AID463173 (ICCB-Longwood Screening Facility, Harvard Medical School, 2010) come the findings set out here.

The campaign covered roughly 52,000 compounds. About 4,300 (8.3%) were called active. Cut-off read from the data, not from the text of the source: active = survival mostly below about 52% (no sharp cut-off); inactive = mostly above about 56%. This is one part of the list.

In the assay the test system is DeltatarO mutant. Put plainly: S. aureus survival, RN4220 and DeltatarO strains – OD600, teichoic acid synthesis inhibitors, primary screen (AID 463173). Conditions: S. aureus RN4220 wild type/DeltatarO growth, OD600, 18 h, active compounds read low, screened at 18.75 µg/mL (by protocol).
Regarding `CCc1cccc(NC(=O)Cn2c(=O)n(Cc3ccccc3)c(=O)c3c(C)c(C(=O)N(C)C)sc32)c1`, the survival is inactive: 71%.
With `CCOc1ccccc1N(C)C(=O)c1cc(S(=O)(=O)NCc2ccc(C)cc2)ccc1F`, the survival is inactive: 105%.
For `CN1CCN(C(=O)c2cnn(-c3ccccc3)c2C2CCN(C(=O)OC(C)(C)C)CC2)CC1`, the survival was inactive: 107%.
The result for `CCc1nnc(SC(CC)C(=O)NCCOC)c2cc3occc3n12` (configuration not stated) reads inactive: 107%.
`CCc1nn2c(=O)cc(COC(=O)c3cccc(NC(=O)COc4ccccc4F)c3)nc2s1`: the survival was inactive: 102%.
As for `COc1ccc(Cl)cc1NC(=O)c1cc(=O)c2cc(C)cc(C)c2o1`, the survival is inactive: 59%.
The same measure for `CCCC(c1nnnn1C(C)(C)C)N(Cc1ccco1)Cc1cc2ccc(C)cc2[nH]c1=O` (configuration not stated): inactive: 83%; for `Cc1ccc(C)c(NC(=O)Cn2cc(S(=O)(=O)N3CCCC3)c(S(=O)(=O)N3CCCC3)c2)c1`: inactive: 94%.
The result for `Cc1cccc(NC(=O)CSc2nc(C)cc(C)c2C(=O)Nc2ccc(Cl)cc2)c1` reads inactive: 44%.
`CCC(=O)C1=C(c2cccc([N+](=O)[O-])c2)N(C(=O)CC)n2c(nnc2C2CCCCC2)S1`: the survival was inactive: 91%.
The result for `CCc1ccc2c(c1)c(=O)c(S(=O)(=O)c1ccccc1)cn2CC(=O)Nc1cc(C)ccc1C` reads inactive: 72%; that for `Cc1ccc(CCNC(=O)Cn2ncc3c(=O)oc4ccccc4c32)cc1`, inactive: 117%.
`Cc1ccccc1-c1nc(CS(=O)(=O)CC(=O)Nc2c(C)cccc2C)c(C)o1`: the survival was inactive: 92%.
Take `CC(CNC(=O)c1ccc2nc(CCc3ccccc3)oc2c1)c1ccccc1` (configuration not stated): the survival is inactive: 70%.
The same measure for `COc1ccc(NC(=O)c2ncoc2-c2ccco2)cc1Cl`: inactive: 86%.
Consider `CCOC(=O)c1cccc(NC(=O)C2CCN(S(=O)(=O)c3c(C)noc3/C=C/c3ccc(C)cc3)CC2)c1`, for which the survival is inactive: 86%.
The same measure for `O=C(Cc1ccccc1)Nc1sc2c(c1C(=O)Nc1ccccc1Cl)CCCC2`: active: 31%; for `COc1cc(NC(=O)c2nc(-c3ccc(Cl)cc3)n3c2CCCCC3)cc(OC)c1OC`: inactive: 70%.
As for `Cc1cccc(C(=O)Nc2ccc3nc(SCC(=O)N4CCc5ccccc54)sc3c2)c1`, the survival is inactive: 113%.
The same measure for `COc1ccc(OC)c(-c2nnc3n(CCc4ccccc4)c(=O)c4ccccc4n23)c1`: inactive: 77%.
The result for `COc1ccc(CNC(=O)Cn2ccc3cc(S(=O)(=O)N4CCCC4)ccc32)c(OC)c1` reads inactive: 72%.
Regarding `CCn1c(=O)n(-c2ccc3c(c2)OCO3)c2nc(-c3cc(OC)ccc3OC)nc(C(N)=O)c21`, the survival is inactive: 88%.
In the case of `COc1ccc(CNC(=O)c2cc(C3CC3)nc3c2c(C)nn3-c2cccc(Cl)c2C)cc1`, the survival is inactive: 98%.
The result for `Cc1cc(/C=C(\C#N)C(=O)Nc2ccccc2)c(C)n1-c1ccc(F)cc1` reads inactive: 59%; that for `COC(=O)c1ccccc1NC(=O)c1sc2nc(C)cc(C)c2c1NC(=O)c1ccccc1Cl`, inactive: 57%; that for `COc1ccc(NC(=O)CN2CCC(N3CCCCC3)CC2)c(OC)c1`, inactive: 58%.
The result for `COc1ccc(NC(=O)c2cc(C(C)=O)n3ccccc23)cc1Cl` reads inactive: 85%; that for `Cc1ccc(C)c(Nc2nn3c(=O)c4ccc(C(=O)N(C)Cc5ccccc5)cc4nc3s2)c1`, inactive: 129%.
The result for `S=c1n(-c2ccccc2)cnn1CN1CCCCC1` reads inactive: 76%; that for `COc1ccc(CNC(=O)c2ccc(NC(=O)N3CCSc4ncccc43)cc2)c(OC)c1`, inactive: 81%; that for `CCOc1ccc2oc(=O)cc(CN3CCN(C(=O)c4cccc(Cl)c4)CC3)c2c1`, inactive: 66%.
Consider `Cc1cnc(C(=O)Nc2ccc(N3CCN(C(=O)OC(C)(C)C)CC3)cc2)cn1`, for which the survival is inactive: 91%.
In the case of `CC(=O)N1CCCn2c1nc1ccccc12`, the survival is inactive: 92%.
The same measure for `CCCCCCCc1nnc(NC(=O)c2cccs2)s1`: inactive: 82%.
Take `O=C(NCc1ccccc1F)c1cc2ccccn2n1`: the survival is inactive: 71%.
For the compound `CCc1ccc(N2CC(C(=O)O)CC2=O)cc1` (configuration not stated), the survival is inactive: 100%.
The same measure for `CCN(CC)C(=O)Cn1c(=O)n(CCCCCC(=O)Nc2ccccc2)c(=O)c2sccc21`: inactive: 82%.
The same measure for `COC(=O)C1CC2(C(=O)O)CC(C(=O)O)(CC(C(=O)OC)C2=O)C1=O` (configuration not stated): inactive: 73%; for `CCOC(=O)c1sc2ncn(CC(=O)Nc3cc(C)cc(C)c3)c(=O)c2c1C`: inactive: 68%.
Take `COC(=O)c1ccccc1NC(=O)Cn1c(=O)cc(-c2ccccc2)c2c(C)nn(C)c21`: the survival is inactive: 89%.
The same measure for `COc1ccc(CNC(=O)c2ccc(NC(=O)N3CCCCc4ccccc43)cc2)c(OC)c1`: inactive: 75%.
The result for `Cc1cccc(-c2nc(C)c(CCNC(=O)C(=O)Nc3c(C)cc(C)cc3C)s2)c1` reads inactive: 94%; that for `COc1ccc(-c2csc3nc(-c4ccc(F)cc4)oc(=O)c23)cc1OC`, active: 48%; that for `Cc1cccc(C)c1NC(=O)CCS(=O)(=O)c1ccc2c(c1)n(C)c(=O)c(=O)n2C`, inactive: 84%.
With `Cc1ccc(CN2CCc3nc(N4CCN(c5ccccc5F)CC4)ncc3C2)s1`, the survival was inactive: 119%.
The same measure for `C=CCN1C(=O)C2(NC(=O)c3ccccc3N2)c2ccccc21` (configuration not stated): inactive: 96%.
For the compound `Cc1ccc2oc(=O)c3cc(C(=O)NCc4ccc(Cl)cc4)sc3c2c1`, the survival is inactive: 93%.
The result for `COC(=O)CNC(=O)C1CCN(c2nc(C)cc(-c3ccccc3)n2)CC1` reads inactive: 96%; that for `Cc1ccc(NC(=O)C2CCCN2S(=O)(=O)c2cccc3nsnc23)c(Br)c1` (configuration not stated), inactive: 89%.
The result for `Cc1cccc(C(=O)NC(=O)Nc2ccc(-n3nc(C(F)(F)F)cc3C(F)(F)F)cc2)c1` reads inactive: 72%.
The same measure for `COc1ccc(-c2nc(C)c(CCNC(=O)c3ccccc3Br)s2)cc1OC`: inactive: 76%.
In the case of `Cc1c2cnn(CC(=O)NCc3ccc(F)cc3)c(=O)c2c(C)n1Cc1ccccc1Cl`, the survival is inactive: 85%.
For `COc1cccc(Cn2cnc3c2c(=O)n(C)c(=O)n3C)c1`, the survival is inactive: 138%.
The result for `CCOc1cc(Br)c(C2C(C(=O)OC)=C(C)NC3=C2C(=O)c2ccccc23)cc1OCC` (configuration not stated) reads inactive: 119%; that for `COCCCNC(=O)C1CCN(c2ncnc3c2nc2n3CCCCC2)CC1`, inactive: 80%.
The result for `CC(=O)N1CCCc2cc(S(=O)(=O)N3CCC(N(C)C(C)C)CC3)ccc21` reads inactive: 94%; that for `Cc1ccc(-c2c(C)n3c4c(=O)n(C)c(=O)n(C)c4nc3n2CCCO)cc1`, inactive: 81%.
As for `CCOC(=O)c1ccccc1NC(=O)Cn1c(=O)n(Cc2ccc(C(=O)NCc3ccc4c(c3)OCO4)cc2)c(=O)c2ccccc21`, the survival is inactive: 91%.
For the compound `COc1ccc(C(=O)Nc2cccc(-c3nc4cccnc4s3)c2C)c(OC)c1`, the survival was inactive: 103%.
The result for `CCOc1ccc(NC(=O)C2CCCN(S(=O)(=O)c3ccc(Br)s3)C2)cc1` (configuration not stated) reads inactive: 101%.
The same measure for `COc1cccc2sc(N(Cc3cccnc3)C(=O)c3ccc(S(=O)(=O)N(C)C)cc3)nc12`: inactive: 91%; for `O=C(O)c1ccccc1NC(=O)N1c2ccccc2Sc2ccccc21`: active: 40%; for `COc1ccccc1CNC(=O)c1cc2cc(S(=O)(=O)N3CCCCC3)ccc2n1C`: inactive: 94%.
As to `CCOC(=O)C1CCCN(C(=O)C2CCN(S(=O)(=O)c3c(C)noc3/C=C/c3ccc(C)cc3)CC2)C1` (configuration not stated), the survival is inactive: 55%.
The same measure for `CC1CCCN(Cc2c(O)ccc3c(=O)c(-c4ccc(Cl)cc4)c(C(F)(F)F)oc23)C1` (configuration not stated): active: 46%; for `COc1cc2c(cc1OC)C(c1cc(OC)c(O)c(OC)c1)CC(=O)N2` (configuration not stated): inactive: 91%; for `Cc1nc2c(C(=O)NCCC(C)C)cnn2c(C)c1Cc1c(F)cccc1Cl`: inactive: 73%.
The same measure for `COc1ccc2c(c1)c1c(c(=O)n(-c3ccc(C)cc3)c(=O)n1CC(=O)Nc1cc(C)ccc1C)n2C`: inactive: 115%; for `CCC(C)NC(=O)C1CCN(S(=O)(=O)c2ccc3c(ccn3CC)c2)CC1` (configuration not stated): active: 8%.
On to `O=C1NC(=O)C(c2ccccc2)(c2ccccc2)N1`, for which the survival was inactive: 76%.
For the compound `COc1ccc(OC)c(NC(=O)c2nc(SCc3ccc(F)cc3)ncc2Cl)c1`, the survival is inactive: 77%.
The same measure for `O=C(NCCc1csc(-c2ccc(F)cc2)n1)C(=O)Nc1ccc(Cl)cc1`: inactive: 75%; for `CCC(=O)N1c2ccc(S(=O)(=O)NCCc3ccccc3)cc2CC1C` (configuration not stated): inactive: 77%; for `O=C(/C=C/c1cn(CC(O)CN2CCc3ccccc32)c2ccccc12)c1ccc(Br)cc1` (configuration not stated): inactive: 68%.
The result for `O=C(/C=C1\NC2(CCCC2)Cc2ccccc21)N1CCOCC1` reads inactive: 64%; that for `Cc1cc(C)cc(N2C(=O)CS(=O)(=O)C23C(=O)N(Cc2ccccc2)c2ccccc23)c1` (configuration not stated), inactive: 82%.
The result for `CC(=O)NC1=NN(C(C)=O)C(C)(CS(=O)(=O)c2ccc(C)c(C)c2)S1` (configuration not stated) reads inactive: 71%; that for `O=S(N1CCCCC1)C12CC3CC(CC(C3)C1)C2` (configuration not stated), inactive: 81%; that for `Cc1cc(OCC(=O)Nc2ncn[nH]2)c(C)c(C)c1Br`, inactive: 114%.
In the case of `COc1ccc(-c2cc(C(F)(F)F)nc(SCC(=O)Nc3ccc(C(C)=O)cc3)n2)cc1`, the survival is inactive: 59%.
In the case of `COc1nnc(-c2ccc(N3CCCCC3)c(NC(=O)c3ccc(Cl)cc3)c2)c2ccccc12`, the survival was inactive: 107%.
On to `N#Cc1nc(COc2ccc(Cl)cc2)oc1NCc1ccco1`, for which the survival is inactive: 87%.
The result for `CCc1cc(=O)[nH]c(SCc2nc(-c3ccccc3C)no2)n1` reads inactive: 84%.
As to `CCOC(=O)C1CCN(c2ncnc3c2c(-c2ccccc2)cn3-c2ccc(C)c(Cl)c2)CC1`, the survival was inactive: 89%.
The result for `Cc1cc(Nc2cccc(O)c2)c2cccc(Br)c2n1` reads active: 61%.
Turning to `Cc1sc2ncn(CC(=O)Nc3ccc(C(F)(F)F)cc3)c(=O)c2c1S(=O)(=O)N1CCN(C)CC1`, the survival is inactive: 144%.
The result for `Cc1nnc(SCC(=O)N(c2ccccc2)c2ccccc2)nc1C` reads inactive: 57%.
